Laboratory results published in publication PMC12101129, “An optimized CYP3A4-activatable fluorogenic sensor for in situ functional imaging and multi-dimensional inhibitor assessment” (Chemical Science, 2025).

B1: CYP3A4 (Homo sapiens) (protein)
chain: MALIPDLAMETWLLLAVSLVLLYLYGTHSHGLFKKLGIPGPTPLPFLGNILSYHKGFCMFDMECHKKYGKVWGFYDGQQPVLAITDPDMIKTVLVKECYSVFTNRRPFGPVGFMKSAISIAEDEEWKRLRSLLSPTFTSGKLKEMVPIIAQYGDVLVRNLRREAETGKPVTLKDVFGAYSMDVITSTSFGVNIDSLNNPQDPFVENTKKLLRFDFLDPFFLSITVFPFLIPILEVLNICVFPREVTNFLRKSVKRMKESRLEDTQKHRVDFLQLMIDSQNSKETESHKALSDLELVAQSIIFIFAGYETTSSVLSFIMYELATHPDVQQKLQEEIDAVLPNKAPPTYDTVLQMEYLDMVVNETLRLFPIAMRLERVCKKDVEINGMFIPKGVVVMIPSYALHRDPKYWTEPEKFLPERFSKKNKDNIDPYIYTPFGSGPRNCIGMRFALMNMKLALIRVLQNFSFKPCKETQIPLKLSLGGLLQPEKPVVLKVESRDGTVSGA
notes: purchased Cypex
B2: human liver microsomes (HLMs) (Homo sapiens) (protein)
chain: MALIPDLAMETWLLLAVSLVLLYLYGTHSHGLFKKLGIPGPTPLPFLGNILSYHKGFCMFDMECHKKYGKVWGFYDGQQPVLAITDPDMIKTVLVKECYSVFTNRRPFGPVGFMKSAISIAEDEEWKRLRSLLSPTFTSGKLKEMVPIIAQYGDVLVRNLRREAETGKPVTLKDVFGAYSMDVITSTSFGVNIDSLNNPQDPFVENTKKLLRFDFLDPFFLSITVFPFLIPILEVLNICVFPREVTNFLRKSVKRMKESRLEDTQKHRVDFLQLMIDSQNSKETESHKALSDLELVAQSIIFIFAGYETTSSVLSFIMYELATHPDVQQKLQEEIDAVLPNKAPPTYDTVLQMEYLDMVVNETLRLFPIAMRLERVCKKDVEINGMFIPKGVVVMIPSYALHRDPKYWTEPEKFLPERFSKKNKDNIDPYIYTPFGSGPRNCIGMRFALMNMKLALIRVLQNFSFKPCKETQIPLKLSLGGLLQPEKPVVLKVESRDGTVSGA
notes: tissue Bioreclamation IVT lot No. X008067; host or cells: pooled human liver microsomes from 50 donors

How the values were obtained:
[1] = substrate: O=C1c2cccc3cccc(c23)C(=O)N1CC1CC1; assay: Enzyme kinetic analysis of NCN 4-hydroxylation in CYP3A4; assay type: biochemical, human; conditions: other: NCN 4-hydroxylation, enzyme source CYP3A4; 37.0 °C
Procedure: (§1) 1.6. P450 reaction phenotyping and chemical inhibition assays
(§2) P450 reaction phenotyping analysis of NCN was determined using a panel of human recombinant cytochrome P450 enzymes, while the inhibitory effects of CYP specific inhibitors on NCN 4-hydroxylation in HLMs were assessed. The final concentration of each human recombinant CYP enzyme in the incubation system was 5 nM. Briefly, each sample was co-incubated with NCN at 37 °C for 30 min, the formation rate of HNCN was determined to assess the metabolic specificity of NCN.
(§3) Gaussian program conducted a GMMX conformational analysis using a DFT/B3LYP/6-31G(d) pre-optimized 3D geometry. The resulting GMMX conformers were optimized at B3LYP/6-31G(d) level. Moreover, all conformers were real minima, as no imaginary vibrational frequencies were found. The energy ranking was performed to find the minimum energy conformer. The minima conformer was optimized at B3LYP /6-311G(d,p) level. The molecular orbital energy levels and electrostatic potential (ESP) were calculated at the DFT/B3LYP/6-311G(d,p) level.
(§4) Frontier orbital and ESP were depicted by Multiwfn (Lu and Chen 2011) and VMD […]
(§5) 1.8. Enzyme kinetic analysis
(§6) The kinetic parameters of NCN 4-hydroxylation in HLMs were determined by performing a set of hydroxylation kinetic assays. Kinetic parameters (K m and Vmax) for NCN 4-hydroxylation were fitted by the following equation (a): […]

[2] = substrate: O=C1c2cccc3cccc(c23)C(=O)N1CC1CC1; assay: Enzyme kinetic analysis of NCN 4-hydroxylation in HLMs; assay type: biochemical, human; conditions: other: NCN 4-hydroxylation, enzyme source HLMs; 37.0 °C
Procedure: as §1, §2, §3, §4, §5, §6

| Protein | Km [1] | kcat [1] | Km [2] |
| --- | --- | --- | --- |
| B1 | 4.27 ± 0.45 µM | 10.01 nmol/min/nmol P450 | – |
| B2 | – | – | 5.52 ± 0.52 µM |
